Test results as given in the supplement of paper PMC8728848.
Some of the results follow.

Tests used:
Experiment in all cases: glycan array binding signal (z-score within array); higher = stronger binding
Settings in all cases: glycan notation: IUPAC condensed, linker removed
[1] = molecular target: Gal3S(b1-4)[Fuc(a1-3)]GlcNAc
Procedure, shortened: (§1)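 From the Consortium for Functional Glycomics database, 3228 arrays were curated, keeping only those whose protein sequence was available. Binding is given as a within-array Z-score averaged across arrays sharing a protein sequence and across linkers. Negative Z-scores can be read as non-binding.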

[2] = molecular target: Gal3S(b1-4)[Fuc(a1-3)]GlcNAc6S
Procedure, shortened: as §1

Gal3S4S(b1-4)GlcNAc = molecular target: Gal3S4S(b1-4)GlcNAc
Procedure, shortened: as §1

Gal3S6S(b1-4)GlcNAc = molecular target: Gal3S6S(b1-4)GlcNAc
Procedure, shortened: as §1

Gal3S6S(b1-4)GlcNAc6S = molecular target: Gal3S6S(b1-4)GlcNAc6S
Procedure, shortened: as §1

Gal4S(b1-4)GlcNAc = molecular target: Gal4S(b1-4)GlcNAc
Procedure, shortened: as §1

Gal4S6S(b1-4)GlcNAc = molecular target: Gal4S6S(b1-4)GlcNAc
Procedure, shortened: as §1

Gal6P(b1-4)GlcNAc = molecular target: Gal6P(b1-4)GlcNAc
Procedure, shortened: as §1

Gal6S(b1-3)GlcNAc = molecular target: Gal6S(b1-3)GlcNAc
Procedure, shortened: as §1

Gal6S(b1-3)GlcNAc6S = molecular target: Gal6S(b1-3)GlcNAc6S
Procedure, shortened: as §1

Gal6S(b1-4)Glc = molecular target: Gal6S(b1-4)Glc
Procedure, shortened: as §1

Gal6S(b1-4)Glc6S = molecular target: Gal6S(b1-4)Glc6S
Procedure, shortened: as §1

Gal6S(b1-4)GlcNAc = molecular target: Gal6S(b1-4)GlcNAc
Procedure, shortened: as §1

Gal6S(b1-4)GlcNAc6S = molecular target: Gal6S(b1-4)GlcNAc6S
Procedure, shortened: as §1

GalNAc(a1-3)Gal = molecular target: GalNAc(a1-3)Gal
Procedure, shortened: as §1

GalNAc(a1-3)GalNAc = molecular target: GalNAc(a1-3)GalNAc
Procedure, shortened: as §1

[3] = molecular target: GalNAc(a1-3)GalNAc(a1-3)Gal(a1-4)Gal(b1-4)GlcNAc
Procedure, shortened: as §1

[4] = molecular target: GalNAc(a1-3)GalNAc(b1-3)Gal(a1-4)Gal(b1-4)Glc
Procedure, shortened: as §1

GalNAc(b1-3)Gal = molecular target: GalNAc(b1-3)Gal
Procedure, shortened: as §1

[5] = molecular target: GalNAc(b1-3)Gal(a1-4)Gal(b1-4)GlcNAc
Procedure, shortened: as §1

[6] = molecular target: GalNAc(b1-3)Gal(a1-4)Gal(b1-4)GlcNAc(b1-3)Gal(b1-4)Glc
Procedure, shortened: as §1

[7] = molecular target: GalNAc(b1-3)Gal(a1-6)Gal(b1-4)Glc
Procedure, shortened: as §1

GalNAc(b1-3)GalNAc = molecular target: GalNAc(b1-3)GalNAc
Procedure, shortened: as §1

GalNAc(b1-3)GlcNAc = molecular target: GalNAc(b1-3)GlcNAc
Procedure, shortened: as §1

GalNAc(b1-4)Gal(b1-4)Glc = molecular target: GalNAc(b1-4)Gal(b1-4)Glc
Procedure, shortened: as §1

GalNAc(b1-4)GlcNAc = molecular target: GalNAc(b1-4)GlcNAc
Procedure, shortened: as §1

[8] = molecular target: GalNAc(b1-4)GlcNAc(b1-2)Man
Procedure, shortened: as §1

[9] = molecular target: GalNAc(b1-4)GlcNAc(b1-2)Man(a1-3)[GalNAc(b1-4)GlcNAc(b1-2)Man(a1-6)]Man(b1-4)GlcNAc(b1-4)GlcNAc
Procedure, shortened: as §1

[10] = molecular target: GalNAc(b1-4)GlcNAc(b1-3)GalNAc(b1-4)GlcNAc
Procedure, shortened: as §1

GalNAc(b1-4)GlcNAc6S = molecular target: GalNAc(b1-4)GlcNAc6S
Procedure, shortened: as §1

GalNAc(b1-6)GalNAc = molecular target: GalNAc(b1-6)GalNAc
Procedure, shortened: as §1

GalNAc3S(b1-4)GlcNAc = molecular target: GalNAc3S(b1-4)GlcNAc
Procedure, shortened: as §1

GalNAc3S(b1-4)GlcNAc3S = molecular target: GalNAc3S(b1-4)GlcNAc3S
Procedure, shortened: as §1

[11] = molecular target: GalNAc3S(b1-4)[Fuc(a1-3)]GlcNAc
Procedure, shortened: as §1

GalNAc4S6S(b1-4)GlcNAc = molecular target: GalNAc4S6S(b1-4)GlcNAc
Procedure, shortened: as §1

GalNAc6S(b1-4)GlcNAc = molecular target: GalNAc6S(b1-4)GlcNAc
Procedure, shortened: as §1

Glc(a1-4)Glc = molecular target: Glc(a1-4)Glc
Procedure, shortened: as §1

[12] = molecular target: Glc(a1-4)Glc(a1-4)Glc(a1-4)Glc
Procedure, shortened: as §1

Glc(a1-6)Glc(a1-6)Glc = molecular target: Glc(a1-6)Glc(a1-6)Glc
Procedure, shortened: as §1

[13] = molecular target: Glc(a1-6)Glc(a1-6)Glc(a1-6)Glc
Procedure, shortened: as §1

Glc(b1-4)Glc = molecular target: Glc(b1-4)Glc
Procedure, shortened: as §1

Glc(b1-6)Glc = molecular target: Glc(b1-6)Glc
Procedure, shortened: as §1

GlcA(b1-3)Gal = molecular target: GlcA(b1-3)Gal
Procedure, shortened: as §1

GlcA(b1-3)GlcNAc = molecular target: GlcA(b1-3)GlcNAc
Procedure, shortened: as §1

GlcA(b1-6)Gal = molecular target: GlcA(b1-6)Gal
Procedure, shortened: as §1

B1: Gal 2 (Homo sapiens), P05162 (protein)
chain: MTGELEVKNMDMKPGSTLKITGSIADGTDGFVINLGQGTDKLNLHFNPRFSESTIVCNSLDGSNWGQEQREDHLCFSPGSEVKFTVTFESDKFKVKLPDGHELTFPNRLGHSHLSYLSVRGGFNMSSFKLKE
glycan array binding signal (z-score) [1]: -0.194
glycan array binding signal (z-score) [2]: -0.003
glycan array binding signal (z-score) (Gal3S4S(b1-4)GlcNAc): -0.168
glycan array binding signal (z-score) (Gal3S6S(b1-4)GlcNAc): -0.257
glycan array binding signal (z-score) (Gal3S6S(b1-4)GlcNAc6S): -0.062
glycan array binding signal (z-score) (Gal4S(b1-4)GlcNAc): -0.259
glycan array binding signal (z-score) (Gal4S6S(b1-4)GlcNAc): -0.189
glycan array binding signal (z-score) (Gal6P(b1-4)GlcNAc): -0.085
glycan array binding signal (z-score) (Gal6S(b1-3)GlcNAc): -0.032
glycan array binding signal (z-score) (Gal6S(b1-3)GlcNAc6S): -0.174
glycan array binding signal (z-score) (Gal6S(b1-4)Glc): -0.19
glycan array binding signal (z-score) (Gal6S(b1-4)Glc6S): -0.128
glycan array binding signal (z-score) (Gal6S(b1-4)GlcNAc): -0.227
glycan array binding signal (z-score) (Gal6S(b1-4)GlcNAc6S): -0.21
glycan array binding signal (z-score) (GalNAc(a1-3)Gal): -0.281
glycan array binding signal (z-score) (GalNAc(a1-3)GalNAc): -0.29
glycan array binding signal (z-score) [3]: -0.134
glycan array binding signal (z-score) [4]: -0.177
glycan array binding signal (z-score) (GalNAc(b1-3)Gal): -0.232
glycan array binding signal (z-score) [5]: -0.258
glycan array binding signal (z-score) [6]: -0.235
glycan array binding signal (z-score) [7]: -0.195
glycan array binding signal (z-score) (GalNAc(b1-3)GalNAc): -0.239
glycan array binding signal (z-score) (GalNAc(b1-3)GlcNAc): -0.102
glycan array binding signal (z-score) (GalNAc(b1-4)Gal(b1-4)Glc): -0.174
glycan array binding signal (z-score) (GalNAc(b1-4)GlcNAc): -0.273
glycan array binding signal (z-score) [8]: 0.044
glycan array binding signal (z-score) [9]: -0.127
glycan array binding signal (z-score) [10]: -0.104
glycan array binding signal (z-score) (GalNAc(b1-4)GlcNAc6S): -0.309
glycan array binding signal (z-score) (GalNAc(b1-6)GalNAc): -0.103
glycan array binding signal (z-score) (GalNAc3S(b1-4)GlcNAc): -0.172
glycan array binding signal (z-score) (GalNAc3S(b1-4)GlcNAc3S): -0.139
glycan array binding signal (z-score) [11]: -0.275
glycan array binding signal (z-score) (GalNAc4S6S(b1-4)GlcNAc): -0.218
glycan array binding signal (z-score) (GalNAc6S(b1-4)GlcNAc): -0.095
glycan array binding signal (z-score) (Glc(a1-4)Glc): -0.245
glycan array binding signal (z-score) [12]: -0.213
glycan array binding signal (z-score) (Glc(a1-6)Glc(a1-6)Glc): -0.2
glycan array binding signal (z-score) [13]: -0.103
glycan array binding signal (z-score) (Glc(b1-4)Glc): -0.269
glycan array binding signal (z-score) (Glc(b1-6)Glc): -0.227
glycan array binding signal (z-score) (GlcA(b1-3)Gal): -0.242
glycan array binding signal (z-score) (GlcA(b1-3)GlcNAc): -0.231
glycan array binding signal (z-score) (GlcA(b1-6)Gal): -0.245
